Results on 22 molecules are retold here after PMC12136788.

T1: UNK ZnF1-3 (human, UniProt Q9C0B0 31-174)
T1 sequence: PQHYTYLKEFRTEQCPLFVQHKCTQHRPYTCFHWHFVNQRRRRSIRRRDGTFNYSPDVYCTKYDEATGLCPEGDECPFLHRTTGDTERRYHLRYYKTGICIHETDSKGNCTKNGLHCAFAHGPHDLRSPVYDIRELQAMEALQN

B1: chr6:134305517:134305518:+_ENSG00000028839_ENST00000367871|hu_mus|motif|central (ssRNA)
RNA: GGGAGUUCUACAGUCCGACGAUCGUUACACACUGCCAAAACAUUCACCACCUUAAAAUCUGUGAAGAUGACCUGAAAACCGGGUUUCUGCAGACUACGGGCUAAACGUCUGGCACCAAAUUUAGCUUCUUCUUCACUUGUUGCCAACAGAGGAUUGAGCAUCA
B2: 93746689_93746809_331_CDS_ENSMUSG00000054079_ENSMUST00000066888|mouse|control|control (ssRNA)
RNA: GGGAGUUCUACAGUCCGACGAUCCUCGACAUCGCCGAAGACGAGCUGCUCCAGGCAACGCUCGGCGGCCGGCUUAUCGUCCUCUAGCGUCAGGCGGUUCCGCUGCCGGAGCCGGCUCUCCUCCUCCUCUGCCGCCGCCGCCGCCAACAGAGGAUUGAGCAUCA
B3: chr14:92597410:92597411:+_ENSG00000165934_ENST00000298875|hu_hu|motif|central (ssRNA)
RNA: GGGAGUUCUACAGUCCGACGAUCGGAAUCAAUAAUAUCCAUAGAAAAGUGCUCAUCCCAGCCACAGUCCAAUAAAAAUCGGAACUCAUCAACUUGGAGAAGAUAGCAAAGGGCAGAUUCUUCUUGGACCCCAGAAAGGGUAGUCAACAGAGGAUUGAGCAUCA
B4: chr1:95392461:95392462:-_ENSG00000117519_ENST00000538964|hu_mus|FALSE|FALSE (ssRNA)
RNA: GGGAGUUCUACAGUCCGACGAUCUUCGGCGGAGAGCCCGUAGGAAGGGCCCUUGUUGAAGUGGGUCAUGGCUGUUUGGACGACUGGAAGAGUUCUAGCGGUCAGUCACCCUCGGUGUCCCUGCUCUUAGCCCCAGCGGCGGCCCAACAGAGGAUUGAGCAUCA
B5: chr11:86538636:86538637:-_ENSMUSG00000047126_ENSMUST00000103186|perfect_dup|motif|central (ssRNA)
RNA: GGGAGUUCUACAGUCCGACGAUCUAACCAUUUCUCCAAAAGCUGUUUUCGCCCUUGCUGAAGUACAGGCCUACAAAGCUCGGAGGAUUCGUAUUUGUUGAGCUGUCCCUGGUCCAAAAGGAUACCAAAGUACUGAAGUAGAGGCAACAGAGGAUUGAGCAUCA
B6: chr7:141445308:141445309:+_ENSG00000106028_ENST00000265304|hu_hu|hu_hu_hu_mus_False|18_18 (ssRNA)
RNA: GGGAGUUCUACAGUCCGACGAUCUAUGAUUGUUGUUGCUUGCCGCCUCACAUUGUUUUUAUCCAUGUACUCGCCAUAGUCCACUUUCCCUUCCACAAAUAUACGAGCCCCCUUUUUCACAUAUUGAUAUGCCACAUCUCUGAGCAACAGAGGAUUGAGCAUCA
B7: 33663629_33663749_535_3pUTR_ENSG00000163539_ENST00000461133|human|control|control (ssRNA)
RNA: GGGAGUUCUACAGUCCGACGAUCACAGUAAUACAAGCUUCUCUAACCACCUGGGAUCUAAGAUCCUUAGCUGAAAGUUUAAGUGCUCCAUCCAACAAUCGUAAAUGUUGAAAAAAGCAAUCAUACUGUGCAGCUCCAGCAACACAACAGAGGAUUGAGCAUCA
B8: 235577844_235582818_518_CDS_ENSG00000116957_ENST00000366601|human|control|control (ssRNA)
RNA: GGGAGUUCUACAGUCCGACGAUCCAGAGAAACUUCUUGCAACUUGCUCAGCUGACUUUGCUGUUUCAUAAUAGAGUCAAAACCGAUAGUCUCCACAGGUUUAUUUCCAAUUGUAACAAUUUGCUCUUUUCUAUCUUCCUCUGGCAACAGAGGAUUGAGCAUCA
B9: chr4:83987663:83987664:+_ENSG00000138663_ENST00000264389|hu_hu|FALSE|FALSE (ssRNA)
RNA: GGGAGUUCUACAGUCCGACGAUCACGUCCUUCGGUUAUCAUUUGAGAUGCUAUCUUUUCCGCCUUAGCUGCAGGGAUCUCUAAAAGAGCUCCAAGUUCUUCGAAGGUAAUAUUAUUAUAUAAUUUGCUUGCAGACAACAAAUUCAACAGAGGAUUGAGCAUCA
B10: chr3:10015032:10015033:+_ENSMUSG00000027533_ENSMUST00000029046|mus_mus|mus_mus_mus_hu_True|28_68 (ssRNA)
RNA: GGGAGUUCUACAGUCCGACGAUCGUUUUUACCAUCACAAGUGAUGAUACAAUCUGGCUUGGCCAUUGCAGCCAUCUUUCGCAAAGCUAUUCCCACUCCUAGCUCCUUCAUGUACUCAUCAAAGCCUUUGCUGUCCACCAGGCGCAACAGAGGAUUGAGCAUCA
B11: chr13:100201205:100201206:-_ENSMUSG00000052727_ENSMUST00000064762|mus_mus|FALSE|FALSE (ssRNA)
RNA: GGGAGUUCUACAGUCCGACGAUCUUCAGUGAUAUGAAGCACACUGGCACCCAGAGUAGGGUGAUCUGGAGACUGCCGACUAAAGUCCAUAGCAAGAGAAUGCUCAGGGGAUUCCUGGCCGAACUCAAUAGACAUAGAAGACUGCAACAGAGGAUUGAGCAUCA
B12: chr6:30688276:30688277:+_ENSG00000196230_ENST00000327892|hu_hu|FALSE|FALSE (ssRNA)
RNA: GGGAGUUCUACAGUCCGACGAUCCCGAUCUGGUUGCCACACUGACCAGCCUGGAUGUGCACGAUUUCCCUCAUGGUUAAAAUUUAAUUUUUUUGCUCGCCUCAAGGUAUGUAUGGGGCAAGAAAAUAAGUAAUUUUUUUUCUCCAACAGAGGAUUGAGCAUCA
B13: 197169363_197169483_249_CDS_ENSG00000177888_ENST00000367405|human|control|control (ssRNA)
RNA: GGGAGUUCUACAGUCCGACGAUCAUCAUCAUUUAAAUAUUUUAGCAAAUUCUUAUUAUACUGCAAAGAACUUAAAAGCUUUCUCUGAUCUGGAGAGGGAGGAAGUUCCUGGUAACAGUGAAGAGCUUCAGGAGUUGGUCUUCCCAACAGAGGAUUGAGCAUCA
B14: 63425985_63433263_8830_CDS_ENSMUSG00000030451_ENSMUST00000076226|mouse|control|control (ssRNA)
RNA: GGGAGUUCUACAGUCCGACGAUCACCGUGGAUUUUGCAGUCGAUUCCUGAGCUCCUGCACUGUUUUAUUGCAAUCUCAAUGUACCUGUGAUACUCUGCACAGUCACUUAGCAGGGGUACAGUGGUGUCAGUUUGGUUGAUAUUCAACAGAGGAUUGAGCAUCA
B15: 130310313_130313774_279_3pUTR_ENSMUSG00000026356_ENSMUST00000027602|mouse|control|control (ssRNA)
RNA: GGGAGUUCUACAGUCCGACGAUCCGAACCAAAACUCUAUCUGGCUUUUCUUGUGAUUGUAUCAUAGAAGAUAUCCCAUAUCUCUCUUUAGCAUAAUCUUCCGCCGCGUCCACGAUCUCCCGCGGCUUCUCCUGACCCUUACGGCAACAGAGGAUUGAGCAUCA
B16: 33014521_33027954_1110_CDS_ENSMUSG00000038831_ENSMUST00000042615|mouse|control|control (ssRNA)
RNA: GGGAGUUCUACAGUCCGACGAUCGCGGAACCUGGCUGAGCUGGAGCCGGCAGAGGGGCCUGCAAGAUCUUCCUUGGACGAAACUAGUCUUGGAGAGCUGCUUCCUGGUUCGAUUCUGAGUGACAACUUGUAAUUAUCAUCUUCCAACAGAGGAUUGAGCAUCA
B17: chr9:53391639:53391640:-_ENSMUSG00000032047_ENSMUST00000034547|mus_hu|motif|central (ssRNA)
RNA: GGGAGUUCUACAGUCCGACGAUCCACUUUUUGGGGAUCAAUCUCCAACAUUUUAAUGUUUGCUAGUACAACCAGACGGAAGGCUUCAUUUACUUCCCACAUUGCAAUAUCUUCUUUUUUCAAUCCCACAUCUUUAAGAACCAUCAACAGAGGAUUGAGCAUCA
B18: chr10:33211235:33211236:-_ENSG00000150093_ENST00000302278|hu_mus|FALSE|FALSE (ssRNA)
RNA: GGGAGUUCUACAGUCCGACGAUCCAGAAUGACUUCUGAAGAAAGAGAGUUGUAGGCAUCGAUGAUUAGCUGGAUCACAUUACUAGAGUUUCCAGACAGUGUGCCCACUGCUGACUUAGGAAUCAAAUUCUUCAAUUCCUUGUACAACAGAGGAUUGAGCAUCA
B19: 98574621_98575875_8501_CDS_ENSG00000196367_ENST00000355540|human|control|control (ssRNA)
RNA: GGGAGUUCUACAGUCCGACGAUCUUUUUUGGCUUUAUCCAUUGCCUUUUCAUAGGAUUCUUGUGCCUGCUCAAAGAACCCGUGCUGCUCGUAAGCAAUCGCAGUCGCUGUCUCCGAGUACUUGCACCGCUUCUGCCACAGACCCAACAGAGGAUUGAGCAUCA
B20: chr1:58468927:58468928:-_ENSMUSG00000026034_ENSMUST00000148330|mus_mus|mus_mus_mus_hu_False|1_58 (ssRNA)
RNA: GGGAGUUCUACAGUCCGACGAUCAAUUACUGAAAAAGAUGUUCAUUACCUUAGCUAUGUACUUAAUGAACCAAAUUAUCUAAAAAAAAUAAACAUGGCAAUAUAAAAAUGUUAAGAAUUUACAAAGCUGUACAAAAAGACUGACAACAGAGGAUUGAGCAUCA
B21: 178370291_178378592_1739_CDS_ENSG00000018510_ENST00000264167|human|control|control (ssRNA)
RNA: GGGAGUUCUACAGUCCGACGAUCUUCCCUUGUUAUUCUUUCUUUUACAUUUCUACAGAGAUCUACCACCCUGUCCCAAGGAGCAGAAGUCUCAAAAGAUUCUCCUAAUACAUAGUAUUCCAAAGCCAAGUCUCGAAUGUAUGCCAACAGAGGAUUGAGCAUCA
B22: chr2:39052001:39052002:-_ENSMUSG00000026753_ENSMUST00000028087|mus_hu|motif|central (ssRNA)
RNA: GGGAGUUCUACAGUCCGACGAUCCAACUGGUAUCAAAUUAACACAUCAGCAUUACAAGUAUUAAAUGUUUUUCUAUUACGGUAGAGGAUAUAAACCAAAACAUUAAUAUGGCAGUUAUGUUCUUUAGGCACAGUUUAGUGAUUCAACAGAGGAUUGAGCAUCA

This is one part of the list.

For this experiment, the target named is T1, UNK ZnF1-3. The experiment in a line: nsRBNS (natural sequence RNA bind-n-seq); RBNS binding buffer (assumed for nsRBNS): 25 mM Tris pH 7.5, 150 mM KCl, 3 mM MgCl2, 0.01% Triton X-100, 500 ug/ml BSA, 20 U/ml SUPERase-In, 4 C; UNK is unkempt and MSI1 is Musashi-1; names of the RNAs are library labels; protein concentration not given here; high values mean tight binding.
In turn, B1 displayed a binding signal of 0.817 enrichment R.

The molecule B2 came in with a binding signal of 0.403 enrichment R.

Turning to B3, the binding signal was 1.46 enrichment R. The figure for B4 is 0.836 enrichment R. In the case of B5, the binding signal worked out at 1.18 enrichment R. Then B6, with 0.688 enrichment R; and B7, with 0.966 enrichment R. On to B8, for which the binding signal worked out at 0.832 enrichment R. Then B9, with 0.9 enrichment R; and B10, with 0.852 enrichment R; and B11, with 1.14 enrichment R. The figure for B12 is 0.896 enrichment R; for B13 it is 2.52 enrichment R. For the molecule B14, the binding signal is 0.446 enrichment R. Molecule B15 yielded a binding signal of 0.582 enrichment R.

Regarding B16, the binding signal stood at 0.965 enrichment R.

As to B17, the binding signal stood at 1.03 enrichment R.

B18 yielded a binding signal of 0.797 enrichment R. As for B19, the binding signal was 0.348 enrichment R.

Consider B20, for which the binding signal stood at 2.56 enrichment R. Then B21, with 1.34 enrichment R. The figure for B22 is 0.946 enrichment R.
